Test results: article PMC5836133
This is one part of the list. At the low end of the ranking the order means little.

Tested on: T1, GST-NbGlk1(82-244)
T1 sequence: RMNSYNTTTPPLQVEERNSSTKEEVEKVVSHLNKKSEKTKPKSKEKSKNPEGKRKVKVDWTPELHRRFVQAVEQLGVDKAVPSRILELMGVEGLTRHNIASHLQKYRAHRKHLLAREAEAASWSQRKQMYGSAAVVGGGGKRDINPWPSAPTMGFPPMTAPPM
Assay: protein-binding microarray;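 further: rank-based score ranging −0.5 to +0.5 with E above 0.45 taken as significant binding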
Details: NbGlk1 is a Golden2-like transcription factor of Nicotiana benthamiana; high values mean tight binding; most listed sequences are background and not binding sites; double strand, one strand shown

Sequence	binding signal [E-score]
CAATCTGA	0.375
ATCTGTAG	0.3
ACGGGGTC	-0.201
CACGACAA	-0.0374
AGTACAGC	-0.00849
ACTATAAT	0.191
AGTGACCA	-0.067
AGGAGGAT	0.244
AGATCCAC	0.287
AAGCGACC	-0.318
ACTACGGG	-0.135
AAACGATC	0.167
AACCATCA	-0.0776
AACCAGGC	-0.199
AGCTATAG	-0.139
ATCGCGAG	0.33
AATGGTAA	0.102
AGCGTTAC	0.0495
AGCGCCTC	-0.25
AGCGTCCC	-0.28
AGATTAGG	0.169
ACCTGCAG	-0.0841
ATAGTGTA	0.12
AATAAAAG	0.0679
ATTAACCC	-0.108

Sequence	binding signal [E-score]
AGCACGAC	-0.119
AATTACTG	0.0348
CAAGACGG	-0.118
AGCAATGC	-0.0664
ATCAACCC	-0.0287
ACGGGGGG	-0.1
AAGGCAAT	0.139
AGAACTCT	-0.0898
CAGCGCGG	-0.0304
ACCCAGAA	0.111
AACGTATA	0.225
ACGGAAGA	-0.00243
AGGCGAAG	-0.114
AACCTCCC	-0.179
ACCCTGCG	-0.16
AAACGGAC	-0.0913
AGGAGCAC	-0.24
CAGAAATG	-0.00514
ACCCGGCT	-0.191
ATGCAGGC	-0.104
AGCCATTG	-0.13
ACTTGCCT	-0.0243
ATCTGAAG	0.222
ATGCCGGC	-0.0516
AACCGCAC	-0.0605

Sequence	binding signal [E-score]
AATAAATT	0.226
AAAATAGC	0.0386
AATTCACG	0.088
AGGGGGAG	-0.107
ATGATTCC	0.306
ACCCCCTG	-0.359
AATAAGTA	0.128
CACTGGCA	-0.243
AGAGCTAC	-0.114
AGATGCAC	-0.149
AGTCTAGA	0.0088
AGGCGCGG	-0.0782
CACTTGGG	-0.15
CAGAAAAA	0.00255
ATCTTATA	0.342
AAAAGGCA	-0.186
AAAGCCTT	-0.138
AAAATGCC	-0.104
AATTTACG	0.176
ATATCTCG	0.435
ACAACTTA	0.0393
AACTTCTC	0.115
AAATGACG	0.0381
ACTAGTGG	-0.0537
AGGTACCA	-0.028

Sequence	binding signal [E-score]
AACGCAAC	0.128
AGCTGAGG	-0.28
ACCGCGGC	-0.192
AGCTACAG	-0.126
ATCTTTCC	0.218
AATATCCT	0.389
ACGAATGA	0.144
AGCTGGAT	0.0562
AATCTTAG	0.393
AAATCCTA	0.417
ATCTACCG	0.225
AGCGCGAC	-0.0554
CAGAAAGG	-0.202
CACCACTC	-0.0259
ATGGAGTA	-0.0794
AGTCCTGG	-0.179
ATCAGCGA	0.229
ACGTGAAA	0.166
ACAATAAA	0.0947
ATGACAAC	-0.0555
ATTTCTCC	0.242
CAAAGCGA	0.0538
ATGCTTGA	-0.0677
AACCACAG	-0.199
ACAAGAAT	0.273

Sequence	binding signal [E-score]
AGCAAGCC	-0.176
AGGATATG	0.301
AAGAGACA	-0.0701
ACCCCCAA	-0.191
ACGCGTAT	0.211
ATTCTAGG	0.131
ATCCTGAA	0.165
CACTATAA	0.0227
ATGGTCGG	-0.194
ATGCCGCA	0.0127
AGATTCGA	0.389
AGCGCCAA	-0.114
ATACACAT	0.17
CACCCGTG	-0.219
CAATAACG	-0.0392
CACCTTGA	-0.152
CAGAACCG	-0.0407
ACCGTCAC	-0.265
AATAGACC	-0.219
ACTGACTA	-0.139
ACACCCTC	-0.0916
ACACTTAA	0.0457
ATCTCAGA	0.303
ACTACCAC	-0.0504
ATGCACAC	-0.0981

Sequence	binding signal [E-score]
ATGCGGAC	-0.158
AACCCAAT	0.000357
AGCTAATG	-0.119
ATATCGGA	0.369
AGTTCCAT	-0.109
ACCCCCCC	-0.353
AGCAACCC	-0.142
AAAGTGTG	-0.114
AGCTTGCC	-0.311
AGCGATAA	-0.0738
ATGACATG	0.0132
ATACCATA	0.179
AGTTCGAC	-0.151
ATTGCGAG	0.24
AGGGTGAA	-0.113
AATACGCC	0.0613
AGCCAGCT	-0.327
CACTTTGG	-0.063
AATTCTTG	0.133
ACAATAGT	0.118
AGACCGCT	-0.192
CACATTTC	0.0379
AAGTGCCT	-0.262
AGTTGAAA	0.153
AGCCGCGC	-0.308

Sequence	binding signal [E-score]
AAGACAGC	-0.0552
AGGGCTGG	-0.193
AGCATGAT	-0.00221
AGTTGCCG	-0.19
ACATACCG	-0.0232
ACCCAGGC	-0.209
AAGTGCGC	0.0324
AGAATAAG	-0.0508
AAGGACGT	-0.183
ATTCTTCA	0.324
CACGTGAA	0.00106
ACAGCACA	-0.233
ATACGGTA	0.197
AGGCGCGC	-0.0749
ACGATTAG	-0.00815
ACGAACAA	0.0782
AACGACAT	-0.0321
ACCCAAAA	0.0753
ATGTAAAA	0.129
ACGTCCTA	0.00748
ACCAGCTA	-0.125
CACACAAG	-0.0263
